The list shows a part of the results.

The record followed here is publication PMC12136788.

T1: UNK ZnF1-3 (human, UniProt Q9C0B0 31-174)
T1 sequence: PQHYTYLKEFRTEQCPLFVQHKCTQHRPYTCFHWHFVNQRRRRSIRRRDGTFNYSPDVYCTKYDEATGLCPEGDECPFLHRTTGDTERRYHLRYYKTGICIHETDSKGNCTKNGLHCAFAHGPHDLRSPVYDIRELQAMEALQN

B1: chr5:132424114:132424115:+_ENSG00000170606_ENST00000304858|hu_mus|motif|central (ssRNA)
RNA: GGGAGUUCUACAGUCCGACGAUCACCAAAAAACUUGCUGAUCUUCUCUUUCACUGCAGGGAUUCGUGUGGCACCACCAACGGUCUCCACUGCAUAAAUAUCUUCUUUCUUUAACUUGGAUUGCUCCAAGACGCUUCGAAGUGGCAACAGAGGAUUGAGCAUCA
B2: chr12:85022504:85022505:+_ENSMUSG00000010608_ENSMUST00000048155|mus_mus|FALSE|FALSE (ssRNA)
RNA: GGGAGUUCUACAGUCCGACGAUCCACAAGGCCAAUUUUCUUGGCUUCUGUUUCAUAUAUCAAUAAUCUCCACAUUUUGACUAUAAAAACUUCUGCUUCUUCAUCUAGUACCAUGGCAACAUCAUCUAAAAUGCUCUGUGGUGACAACAGAGGAUUGAGCAUCA
B3: chr17:64801638:64801639:+_ENSG00000154229_ENST00000413366|hu_mus|hu_hu_hu_mus_False|1_38 (ssRNA)
RNA: GGGAGUUCUACAGUCCGACGAUCUAUAUAUAUAUAUACAUAUGUACACAUAUAUAGUAAAACCCUAGUUAAACGUGUAAAGUAGCCAUUCAUUUUUGAAAUUUUAUCUACAUUAAAAAAUUAAUAUAUCUGAUAGAGUGCCCACAACAGAGGAUUGAGCAUCA
B4: chr2:5814250:5814251:-_ENSMUSG00000025816_ENSMUST00000102981|mus_mus|FALSE|FALSE (ssRNA)
RNA: GGGAGUUCUACAGUCCGACGAUCUUCCUUUCAGGCUUCUGAAUUUCUGGUAGAACUGCACAGAAAGGUUUAAUAACUUCUAAAAACUUGAUGCCCAUGGCGGCGGCUCAGCACACCCGGCGGGCACCCGCGGCCUCGCAGCUGCAACAGAGGAUUGAGCAUCA
B5: chr15:78764095:78764096:+_ENSG00000136381_ENST00000258886|hu_mus|FALSE|FALSE (ssRNA)
RNA: GGGAGUUCUACAGUCCGACGAUCGUUCACUUGAUGAGCCAUUCCAGUUCCAGGCGGGAUGACUGCCACAUUCUUAAAAGCUCCUGAGCUCCACUUGAAAAACUGAAGCCUCUCUCGAUUUCUGCCAAAUUCUACUUCUUGAUUCAACAGAGGAUUGAGCAUCA
B6: chr16:94664741:94664742:+_ENSMUSG00000040785_ENSMUST00000117648|mus_hu|mus_mus_mus_hu_False|8_108 (ssRNA)
RNA: GGGAGUUCUACAGUCCGACGAUCUGGCAUGGAUCUUGGUAGCUGAUAUUCAGGAGAAAGGCUGGCCAAGGGUGUAUAUAUGCUGGUGUACUGGGGCAAACCUGGUAACACGUUUAUGUAUGCUGGCCGCUGGGUGAUGAUAUCCAACAGAGGAUUGAGCAUCA
B7: chr1:163112212:163112213:-_ENSG00000143248_ENST00000313961|hu_hu|hu_hu_hu_mus_False|18_108 (ssRNA)
RNA: GGGAGUUCUACAGUCCGACGAUCUUUAUUUAUCCAGAAGAGUGAGUUACAUACUAGGCAAAGUAUUGGAUACAAUAAUCAGGAAACAAACACUAUUGGUCCAGAAUUUAAAACUUUUGGGAUAAAUUGCUGGCACAGGACUUACAACAGAGGAUUGAGCAUCA
B8: 108361874_108364346_2953_CDS_ENSMUSG00000034557_ENSMUST00000106657|mouse|control|control (ssRNA)
RNA: GGGAGUUCUACAGUCCGACGAUCCUCUGUUGGAAGAGGACUGGUGGCUACAGGCUUGACUGGGUCAUGUGACACAGCCAGAGUUCCUGCAGAGGAAGUUCCAUUCAUUGUUAAUUUGGCUGCAUCAGCAACUUCUCCAUUAGGCAACAGAGGAUUGAGCAUCA
B9: chr4:141302222:141302223:+_ENSG00000153130_ENST00000394201|hu_hu|FALSE|FALSE (ssRNA)
RNA: GGGAGUUCUACAGUCCGACGAUCUCUUUUGCUUUUUGUGUCAGUUGUUUGAAAAACACUAGAAGCUGACAUGAGAUUUUCUAUAUAUUGUCCAAGAACUUGGUUUUCUGAUUUUAGCUUCAGAUUUUCUUCCUUAACUGCAUCCAACAGAGGAUUGAGCAUCA
B10: chr16:94664741:94664742:+_ENSMUSG00000040785_ENSMUST00000117648|mus_hu|mus_mus_mus_hu_False|68_68 (ssRNA)
RNA: GGGAGUUCUACAGUCCGACGAUCUGGUACUGAUCUUGGUAGCUGAUAUUCAGGAGAAAGGCUGGCCAAAGGUGUGUAUAUGCUGGUGUACUGGGGCAAACCUGGUAACACGUUUAUGUAUGCUGGCGGUGUCUGGGUGAUAUCCAACAGAGGAUUGAGCAUCA
B11: chr2:179979976:179979977:-_ENSG00000187231_ENST00000335289|hu_mus|FALSE|FALSE (ssRNA)
RNA: GGGAGUUCUACAGUCCGACGAUCCUGCAGCAGCUGUCUGCCAUAGUCGUAAGUACUCUGGGCAACAUCGACAAAUUUUCUGUGUUUUUCCAGUAAAACCUUUGUUUCCUGAGCAUCGUCACCCAGCCUGAUAUGGGUCUUCAGCAACAGAGGAUUGAGCAUCA
B12: chr4:17845017:17845018:+_ENSG00000109805_ENST00000514176|hu_mus|hu_hu_hu_mus_False|38_38 (ssRNA)
RNA: GGGAGUUCUACAGUCCGACGAUCGCUCUCUUAACUUGUAUCUUCAUUAAGGAACUCUGCAAGGUUAAGUUUACUUUUCUGUAGCGCAGCUGUUUUGCUCGUCUUGGGUAAUCUCAUCUUCAUUUCUGAUGGUGGUUCAUGAUCCAACAGAGGAUUGAGCAUCA
B13: chr17:65740002:65740003:+_ENSG00000130935_ENST00000581375|hu_hu|hu_hu_hu_mus_False|68_108 (ssRNA)
RNA: GGGAGUUCUACAGUCCGACGAUCAACCCGUUCUUGCUCCCUGGACGAACAGGAAGAUUCAUAUUAACUUUAUAAAAUAUCCAUCAAGUUAGGUGUGGUGGCCACACCUUUACUCCCAGCACUUUGGGAGGUGGAUCUCUGAGUCAACAGAGGAUUGAGCAUCA
B14: chr3:169711627:169711628:+_ENSG00000008952_ENST00000337002|hu_mus|FALSE|FALSE (ssRNA)
RNA: GGGAGUUCUACAGUCCGACGAUCCUAAAAACAUACCUUACAUGGUUUUUGUUUUACAAAUUUCAGUGUUGAGAAAUGUCUAAAUAAUAAGUAACAAUUAAAAUAAAAUGUUUUAUUUGUAAAUUAUGUACAGAAUACAUCUUACAACAGAGGAUUGAGCAUCA

In this test the target is T1, UNK ZnF1-3. In words: nsRBNS (natural sequence RNA bind-n-seq); RBNS binding buffer (assumed for nsRBNS): 25 mM Tris pH 7.5, 150 mM KCl, 3 mM MgCl2, 0.01% Triton X-100, 500 ug/ml BSA, 20 U/ml SUPERase-In, 4 C; UNK is unkempt and MSI1 is Musashi-1; names of the RNAs are library labels; protein concentration not given here; high values mean tight binding.
B1 showed a binding signal of 0.803 enrichment R.

For the molecule B2, the binding signal amounted to 0.883 enrichment R.

For B3, the binding signal came to 2.12 enrichment R.

Molecule B4 showed a binding signal of 1.1 enrichment R.

With B5, the binding signal was found to be 0.98 enrichment R.

Turning to B6, the binding signal is 1.1 enrichment R.

Take B7: the binding signal was 1.75 enrichment R.

As for B8, the binding signal worked out at 0.836 enrichment R.

Turning to B9, the binding signal turned out to be 0.297 enrichment R.

Turning to B10, the binding signal was determined as 0.975 enrichment R.

B11: the binding signal amounted to 0.914 enrichment R.

As to B12, the binding signal came to 0.344 enrichment R.

With B13, the binding signal was determined as 0.844 enrichment R.

B14 came in with a binding signal of 0.644 enrichment R.
